The list shows a part of the results.
What was measured:
HSkMC = human skeletal muscle cells; test: cytotoxicity call (relative viability < 0.9); conditions: 10 µM
HepG2 = test: cytotoxicity call (relative viability < 0.9); conditions: 10 µM
S. aureus RN4220 = test: growth inhibition call (relative growth <= 0.2); conditions: 50 µM

Row | Compound | cytotoxicity call (HSkMC) | cytotoxicity call (HepG2) | growth inhibition call (S. aureus RN4220)
1 | O=C(C[C@H]1CC[C@H]2[C@@H](COC[C@@H](O)CN2S(=O)(=O)c2cccc(Cl)c2)O1)NC1Cc2ccccc2C1 | inactive | inactive | inactive
2 | Cc1ccc(S(=O)(=O)N(C)C[C@@H]2Oc3ccc(NS(=O)(=O)c4ccccc4)cc3CC(=O)N([C@@H](C)CO)C[C@@H]2C)cc1 | inactive | inactive | inactive
3 | CC(C)(C)NC(=O)C1CN(Cc2cccnc2)CCN1CC(O)CC(Cc1ccccc1)C(=O)NC1c2ccccc2CC1O (stereo not given) | inactive | active | inactive
4 | CNC(=O)CN1CC[C@]12CCN(C(=O)c1ccn(C)n1)C2 | inactive | inactive | inactive
5 | COc1cccc(-c2ccc3c(c2)O[C@H](CN(C)C(=O)C2CCOCC2)[C@@H](C)CN([C@@H](C)CO)S3(=O)=O)c1 | inactive | inactive | inactive
6 | CC(C)(C)[S@@](=O)N1Cc2cc(C(=O)NCc3ccccc3F)nc(-c3cccc(-c4cccnc4)c3)c2[C@H]1CCO | inactive | inactive | inactive
7 | O=C(O)C=C(CC(=O)O)C(=O)O | inactive | inactive | inactive
8 | Cn1c(=O)[nH]c2ncn(C)c2c1=O | inactive | inactive | inactive
9 | C[C@@H]1O[C@H](O)[C@@H](F)[C@H](O)[C@@H]1O | inactive | inactive | inactive
10 | C[C@H]1CCCCO[C@@H](CN(C)C(=O)c2ccccc2)[C@@H](C)CN([C@@H](C)CO)C(=O)c2cc(NC(=O)C3CCCCC3)ccc2O1 | inactive | inactive | inactive
11 | COc1ccc(-c2cc(=O)c3c(O)cc(OC4OC(COC5OC(C)C(O)C(O)C5O)C(O)C(O)C4O)cc3o2)cc1O (stereo not given) | inactive | inactive | inactive
12 | Cc1noc(C)c1NC(=O)Nc1cccc2c1O[C@@H](CN(C)C(=O)Nc1cccc3ccccc13)[C@@H](C)CN([C@H](C)CO)C2=O | inactive | inactive | inactive
13 | CCCCCCCCCCCCCCCC(=O)OCC(O)CO (stereo not given) | inactive | inactive | inactive
14 | O=C(C[C@H]1C=C[C@@H](NC(=O)c2cccc(F)c2)[C@@H](CO)O1)NCCN1CCCC1 | inactive | inactive | inactive
15 | Cc1cc(=O)nc(SCC(N)=O)[nH]1 | inactive | active | inactive
16 | NNc1ccc2[nH]c(=O)[nH]c2c1 | inactive | inactive | inactive
17 | C[C@@H]1CN([C@@H](C)CO)C(=O)c2cccc(NC(=O)C3CC3)c2O[C@H]1CN(C)S(=O)(=O)c1ccccc1 | inactive | inactive | inactive
18 | CCCCOC(=O)CSc1n[nH]c(=O)[nH]c1=O | inactive | inactive | inactive
19 | COCC#Cc1ccc2c(c1)O[C@H](CN(C)C(=O)c1ccccc1)[C@H](C)CN([C@@H](C)CO)S2(=O)=O | inactive | inactive | inactive
20 | CCCNC(=O)N(C)C[C@@H]1Oc2cc(C#Cc3ccccn3)ccc2S(=O)(=O)N([C@H](C)CO)C[C@H]1C | inactive | inactive | inactive
21 | O=C(C[C@H]1CC[C@@H](NS(=O)(=O)c2ccc(F)cc2)[C@@H](CO)O1)N1CCC(Cc2ccccc2)CC1 | inactive | inactive | inactive
22 | Cc1ccc(-c2ccc3c(c2)O[C@@H](CN(C)C(=O)NC(C)C)[C@H](C)CN([C@H](C)CO)S3(=O)=O)cc1 | inactive | inactive | inactive
23 | C[C@@H]1CN([C@@H](C)CO)C(=O)c2cc(NS(=O)(=O)c3ccc(F)cc3)ccc2O[C@@H]1CN(C)C(=O)Nc1cccc2ccccc12 | inactive | inactive | inactive
24 | Cc1ccc(S(=O)(=O)N[C@@H](Cc2ccccc2)C(=O)NCCn2cc(-c3ccc(C(=O)NO)s3)nn2)cc1 | inactive | inactive | inactive
25 | CS(=O)(=O)N1C[C@H]2COC[C@@]2(C(=O)NCc2ccccn2)C1 | inactive | inactive | inactive
26 | C[C@H]1CN([C@@H](C)CO)C(=O)c2cccc(NS(=O)(=O)c3cn(C)cn3)c2O[C@@H]1CN(C)Cc1ccccc1 | inactive | inactive | inactive
27 | C[C@H]1CN([C@@H](C)CO)C(=O)c2cccc(NC(=O)C3CC3)c2O[C@@H]1CN(C)S(=O)(=O)c1ccc(Cl)cc1 | inactive | inactive | inactive
28 | CNS(=O)(=O)c1cc(OC)ccc1OC | inactive | inactive | inactive
29 | C[C@@H]1CN([C@@H](C)CO)C(=O)c2cc(NC(=O)Nc3cccc4ccccc34)ccc2O[C@@H](C)CCCCO[C@H]1CN(C)CC1CCCCC1 | active | active | inactive
30 | C[C@H](CO)N1C[C@H](C)[C@H](CN(C)C(=O)Nc2cccc3ccccc23)Oc2ccc(NC(=O)Nc3ccc4c(c3)OCO4)cc2CC1=O | inactive | inactive | inactive

Source: the antibiotic and cytotoxicity screens of Wong et al. (2023)
